Where “and” joins values, the source holds several entries; their conditions need not be identical. Identical values can stand only once.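 Exposure lasted 48 hours, with cells grown in 96-well plates and compounds tested at five concentrations. GI50 = concentration required for 50% inhibition of growth.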 Calls of active or inactive are those of the source. Rule as the data show it: active = GI50 up to about 1.1 µM and inactive = higher. Square brackets hold non-standard residues; d marks the D form. Peptide text beside a SMILES is read from it. 2Nal = N[CH](Cc1ccc2ccccc2c1)C(=O)O
System: NCI-H322M
Assay: NCI-60 cell line screen, 48 h

Compound | GI50
CC(=O)NNc1nc(C)c(C(/C=C/c2ccc(/C=C/C(=N\NC(=O)c3ccncc3)c3sc(NNC(C)=O)nc3C)cc2)=N/NC(=O)c2ccncc2)s1 | inactive: > 100 µM
O=S1(=O)c2ccccc2N(c2ccccc2)c2nnnn21 | inactive: 39.4 µM
CCOC(=O)c1c(-c2ccc(OC)c(O)c2)c(C#N)c(=S)n(C2OC(CO)C(O)C(O)C2O)c1-c1ccccc1 (stereo not given) | inactive: > 100 µM
COC(=O)C(Cc1c[nH]c2ccccc12)NC1=Nc2ccncc2S(=O)(=O)N1c1ccccc1 (stereo not given) | inactive: 19.9 µM
C(=C/c1ccc2nc(-c3ccc(/C=C/C=N/NC4=NCCCN4)cc3)cn2c1)/C=N/NC1=NCCCN1 | inactive: 15 µM
CSC1(Cc2ccccn2)C(=O)Nc2cccc([N+](=O)[O-])c21 (stereo not given) | inactive: > 100 µM
N#Cc1c(N2CCCC2)ncn(-c2ccccc2)c1=S | inactive: > 100 µM
O=C1c2ccccc2-c2ccc(NC(=O)C3CCCCC3C(=O)O)cc21 (stereo not given) | inactive: > 100 µM
CC(C)CCNC(=O)c1ccc(CNC(=O)/C=C/c2cccc(Oc3ccccc3)c2)cc1 | inactive: 71.4 µM
CC1CCC2(OCCO2)[C@]2(C)CC(O)C(=O)C=C12 (stereo not given in full) | inactive: > 100 µM
C=C(C)[C@@H]1C[C@H]2O[C@](O)(C(=C)CC(=O)/C=C(/C)C[C@@H]3OC(=O)[C@]24O[C@@H]34)[C@H]1O | inactive: > 100 µM
C[n+]1c(-c2ccc(NC(=O)c3ccc(C(=O)Nc4ccc(-c5cn6ccccc6[n+]5C)cc4)cc3)cc2)cn2ccccc21 | inactive: > 100 µM
CC(=O)Nc1cc2c3c(c1)CCCN3CCC2 | inactive: > 100 µM
O=c1c2ncn(COCCCl)c2n(-c2ccccc2)c(=S)n1-c1ccccc1 | inactive: > 100 µM
CC(C)C(NC(=O)C(CCCCN)NC(=O)C(Cc1c[nH]c2ccccc12)NC(=O)C(Cc1ccc(O)cc1)NC(=O)C(CS)NC(=O)C(N)Cc1ccc2ccccc2c1)C(=O)NC(CS)C(=O)NC(C(N)=O)C(C)O (stereo not given) (H-[2Nal]CYWKVCT-NH2; configuration not given here) | inactive: > 12.5 µM
Cc1cn(CCCCOC(=O)NC(CCCNC(N)=O)C(=O)O)c(=O)[nH]c1=O (stereo not given) | inactive: > 100 µM
O=C1C(NCCO)=C(N2CC2)C(=O)C(NCCO)=C1N1CC1 | inactive: 74.1 µM
CC(=O)OCC1OC(NC(=S)CCSc2nc3ccccc3c(=O)n2-c2ccccc2)C(OC(C)=O)C(OC(C)=O)C1OC(C)=O (stereo not given) | inactive: > 100 µM
CCOC1Oc2ccccc2-c2nc(SC)ncc21 (stereo not given) | inactive: > 100 µM
O=C1NC2(CCCCC2)C2CCCCC=C12 (stereo not given) | inactive: > 100 µM
N#C/C(=C\NC(=S)Nc1ccc(S(=O)(=O)Nc2ccccn2)cc1)C(N)=O | inactive: > 100 µM
CNC(=O)c1nc[nH]c1/N=N/N(C)N | inactive: > 100 µM
COC(=O)CCC(C)[C@H]1CCC2C3CC[C@@H]4CC5(CC[C@]4(C)C3C[C@H](OC(C)=O)[C@@]21C)OOC1(CCCCC1)OO5 (stereo not given in full) | inactive: 43.8 µM

Compound | GI50
CN1C(=O)c2ccccc2NC(=O)C12O[C@@H]2c1cccc(O)c1 (stereo not given in full) | inactive: > 100 µM
CC1(C)CCCC2CC2CCC(C)(C)C1=O (stereo not given) | inactive: > 100 µM
O=c1[nH]c2c(S)nc(O)nc2n1-c1ccccc1 | inactive: > 100 µM
O=C(CCOS(=O)(=O)CF)N1CCN(C(=O)CCOS(=O)(=O)CF)CC1 | inactive: > 100 µM
O=C1OCC(C(=O)c2cccc(O)c2)C1=O (stereo not given) | inactive: > 100 µM
Clc1ncc(Cl)c(Cl)n1 | inactive: 14.1 µM
O=c1onc2c3ccccc3ncn12 | inactive: > 100 µM
CCN1CCCn2c(=O)[nH]c3cc(Br)cc1c32 | inactive: > 100 µM
Cc1ccc2c(O)cc(-c3ccc(C)s3)nc2n1 | active: 0.644 µM
COC(=O)c1c(C)cc(OC)c(C/C=C(\C)CCCc2coc(C=C(C)C)c2)c1OC | inactive: > 100 µM
CC(=O)OC1C(O)COC(O[C@H]2CC[C@]34C[C@]35CC[C@]3(C)C([C@@]6(C)CC[C@@H](C(C)(C)O)O6)[C@@H](O)C[C@@]3(C)C5C[C@H](OC3OCC(O)C(O)C3O)[C@H]4C2(C)C)C1OC1OCC(O)C(O)C1O (stereo not given in full) | inactive: > 100 µM
CN(C)CCNC(=O)c1ccc(NCCCN(C)CCCNc2ccc(C(=O)NCCN(C)C)c3nc4ccc([N+](=O)[O-])cc4c(O)c23)c2c(O)c3cc([N+](=O)[O-])ccc3nc12 | active: < 0.01 µM
CN1C(=O)C(C#N)C2C[C@@]1(C)Oc1ccccc12 (stereo not given in full) | inactive: > 100 µM
O=C1CCC(Cl)=CC2CCCN12 (stereo not given) | inactive: > 100 µM
COc1cc[n+](C)cc1 | inactive: > 100 µM
CCOc1nc(N)nc(C)c1/N=N/c1ccc(Cl)cc1 | inactive: > 100 µM
O=C1NC(=S)NC(=O)C1=Cc1ccc([N+](=O)[O-])o1 | inactive: > 100 µM
Cc1ccc(/C=C2\N=C(N3CCCC(CO)C3)NC2=O)cc1 (stereo not given) | inactive: > 100 µM
CC/C(=N/O)C(C)C(=O)CCC(=O)Nc1ccc(Cl)cc1 (stereo not given) | inactive: > 100 µM
C=CCCn1nc(-c2ccccc2)oc1=O | inactive: > 100 µM
COC1=CC(=O)C2=C(C1=O)[C@H]1CC[C@]3(C)C(=O)CC[C@H]3[C@@H]1CC2 | inactive: > 100 µM
O=C1/C(=C/c2ccccc2Cl)COc2ccc(Br)cc21 | inactive: > 100 µM
CCOC(=O)c1c(C)[nH]c2c1c(CN(C)C)c(O)c1nc(C)c(C)nc12 | inactive: 25.1 µM

Compound | GI50
Nc1c(C(=O)Nc2ccc(C3=NCCN3)cc2)cccc1C(=O)Nc1ccc(C2=NCCN2)cc1 | inactive: > 100 µM
O=C1NC2(CCCCC2)C2CCCCCC12 (stereo not given) | inactive: > 100 µM
COc1c(O)c2ccccc2c2cc(O)ccc12 | inactive: 14.7 µM
Cc1c(C)c2cc3c(=O)ccoc3c(C)c2oc1=O | inactive: > 100 µM
CS(=O)(=O)c1ccc(C2=C(c3ccccc3)C(=O)OC2)cc1 [ROFECOXIB] | inactive: > 100 µM
Cc1nc(Nc2ccccc2Cl)sc1C(=O)CC(=O)C(N)=O | inactive: 56.8 µM
CC1=NN(C(=O)c2ccccc2O)C(c2ccccc2Cl)C1C(=O)Nc1ccccc1 (stereo not given) | active: 0.542 µM
CC(C)(C)OC(=O)CC(NC(=O)OC(C)(C)C)C(=O)Oc1ccc([N+](=O)[O-])cc1 (stereo not given) | inactive: 32.1 µM
CCC(=O)N(c1ccccc1)C(C)CN1CCC(O)(c2cccc(C(F)(F)F)c2)CC1 (stereo not given) | inactive: 21.4 µM
COc1ccccc1NC(=O)CC(=O)N1N=C(C)C(/N=N/c2ccc(C(=O)O)cc2)C1=O (stereo not given) | inactive: > 100 µM
NC(=O)CSc1nc2ccccc2c(=O)n1N | inactive: > 100 µM
COc1ccc(/C=C2\N=C(c3ccccc3)N(C3Nc4cc5c(cc4S3)NC(N3C(=O)/C(=C/c4ccc(OC)cc4)N=C3c3ccccc3)S5)C2=O)cc1 (stereo not given) | inactive: 93.3 µM
CC1(C)C2CCC(CN)(C2)C1N (stereo not given) | inactive: > 100 µM
C=CCC1(O)c2cccc(O)c2C(=O)c2c(O)cccc21 | inactive: 50.4 µM
COC(=O)c1cc(/C=C\c2cc(OC)ccc2OC)ccc1OC | inactive: 36 µM
Cc1[nH]c2ccccc2c1-c1cc(-c2cc(-c3c(C)[nH]c4ccccc34)nc(N)n2)nc(N)n1 | inactive: > 100 µM
COc1ccc(/C=C/c2cc(OC)c(OC)c(OC)c2)cc1 | inactive: 24.5 µM
COC(=O)NC(Cc1ccccc1)NC(=O)OC(C)(C)C (stereo not given) | inactive: > 100 µM
O=C1C(Cl)C(c2cccc([N+](=O)[O-])c2)N1n1cnc2ccccc2c1=O (stereo not given) | inactive: 53.1 µM
CC(C)(/N=N/C(C)(C)C(=N)N)C(=N)N | inactive: > 100 µM
CC1(C)O[C@H]2OC3CCC(=O)CC3(O)[C@H]2O1 (stereo not given in full) | inactive: > 100 µM
O=C1CCSc2nc(-c3ccc4c(c3)OCO4)nn21 | inactive: > 10 µM
COc1cc2[nH]c(=O)c3cc(C)cc4c(Cl)nc(c1OC)c2c43 | inactive: 27.5 µM

Compound | GI50
CN(C)CCOc1ccc(I)cc1Cc1ccccc1 | inactive: 13.9 µM
Cc1nn(C2OC(CO)C(O)C(F)C2O)c(=O)[nH]c1=O (stereo not given) | inactive: > 100 µM
OCC(O)C(O)C(O)C(/C=N\Nc1ncnc2c(Br)cc(Br)cc12)=N/Nc1ncnc2c(Br)cc(Br)cc12 (stereo not given) | inactive: 5.61 µM and inactive: 4.38 µM
CCOC(=O)c1c2c(n(Cc3ccccc3)c1C)C(=O)C(=O)c1ccccc1-2 | active: 0.515 µM
O=c1[nH]c(=O)c2ncn(-c3ccc([N+](=O)[O-])cn3)c2[nH]1 | inactive: > 100 µM
CN(C)Cc1cc(C(=O)/C=C/c2ccccc2)cc(CN(C)C)c1O | inactive: 31.6 µM
Oc1cccc(-c2ccc3c4c2O[C@H]2c5[nH]c6ccccc6c5C[C@@]5(O)[C@@H](C3)N(CC3CC3)CC[C@]425)c1 | inactive: 3.05 µM
CC(=O)O/N=C(Cl)/C(Cl)=N/OC(C)=O | inactive: > 100 µM
CN(C)c1ccc(/C=C2\C[C@H]3[C@@H]4CCC5=CC(=O)CC[C@]5(C)[C@H]4CC[C@]3(C)C2=O)cc1 | inactive: > 100 µM
COC(=O)C1Cc2c(OC)ccc(OC)c2C(O)C1C(=O)OC (stereo not given) | inactive: > 100 µM
CSC1(C(=O)O)C2CCC3C2CCC31 (stereo not given) | inactive: > 100 µM
Nc1ncnc2c1nnn2C1C=CC(CP(=O)(O)O)C1 (stereo not given) | inactive: > 100 µM
S=C(NCc1ccccn1)N/N=C/c1ccccn1 | active: < 0.01 µM
O=C1c2cccnc2C(=O)c2c1nc1ccccc1c2-c1cncc(-c2c3c(nc4ccccc24)C(=O)c2cccnc2C3=O)c1 | active: 0.184 µM
COc1cc(/C=C2\CCC(C)/C(=C\c3cc(OC)c(OC)c(OC)c3)C2=O)cc(OC)c1OC (stereo not given) | inactive: 10.8 µM
CC1(C)C2CCC3=C(CCC4(C)C5C[C@](C)(C(=O)O)CC[C@]5(C)CC[C@]34C)[C@@]2(C)CC[C@@H]1O (stereo not given in full) | inactive: 18.5 µM
Cc1c2c(OCCCCN3CCN(c4ncccn4)CC3)nn(C)c(=O)c2c(C)n1-c1ccccc1 | inactive: 19.4 µM
ClC1(c2ccccc2)c2ccc(Br)cc2-c2cc(Br)ccc21 | inactive: 17.9 µM
COc1ccc(/C(=N\Nc2ccccn2)c2ccccn2)cc1 | active: < 0.0228 µM
C=CCc1c(O)c2ccccc2[nH]c1=O | inactive: > 10 µM
C[N+](C)(C)CC1CCCC(C[N+](C)(C)C)C1=O (stereo not given) | inactive: 17.8 µM

Reference: ChEMBL document CHEMBL1201862, “PubChem BioAssay data set” (2004)
